PubChem BioAssay AID1508624 (National Center for Advancing Translational Sciences (NCATS), 2021)
About 120 (0.25%) of roughly 48,000 compounds were called active. About 4% were inconclusive and are not listed. Calls come from the whole dose curve; as a rule, active = well fitted activation curve with a large enough effect; inconclusive = small, poorly fitted or top-dose-only effect, or another doubt; inactive = no such curve, though single readings can be large or run the other way. The list shows a part of the results.

Experiment: Primary qHTS for Identification of Small Molecule Activators of Huntingtin-Antisense Promoter Activity; note: nearly all actives have a fitted effect of over 55% in size
Conditions: HEK293 HTT-AS promoter firefly luciferase reporter, 24 h; series mostly up to 57.5 µM; activity change, positive = activation: at the top concentration
Outline: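 HEK293 luciferase promoter-reporter cells (2,500/well) plated 24 h, then compounds added at up to 57.5 uM final for 24 h at 37 °C. Firefly luminescence by Dual-Glo, normalized to vehicle (0%) and zero RLU (-100%).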

Activity change, positive = activation, inactive:
COC(=O)c1cccc(Nc2c(-c3ccc(SC)cc3)nc3nc[nH]n23)c1 6.25%, Cc1ccc(-n2ncc(C(=O)NCCc3ccsc3)c2C2CCN(C(=O)OC(C)(C)C)CC2)c(C)c1 9.94%, O=C(CCCCCn1c(=O)[nH]c2ccccc2c1=O)NCCc1ccccc1 4.08%, COC(=O)[C@@H]1[C@H]2C[C@@H]3c4[nH]c5ccccc5c4CCN3C[C@@H]2CC[C@@H]1O -1.97%, COc1ccc(Cl)cc1NC(=O)CN(c1cccc(C)c1C)S(C)(=O)=O -23.9%, Cc1cccc(S(=O)(=O)c2cn(Cc3ccc(F)cc3)c3cc(N4CCCCC4)c(F)cc3c2=O)c1 -7.43%, COc1ccc(CN2C(=O)N(c3cccc(C)c3)C(=O)C2CC(=O)Nc2ccc(F)cc2)cc1OC (stereo unspecified) -14.7%, CN(Cc1ccccc1)C(=O)C(=O)Nc1ccc2nc3n(c(=O)c2c1)CCCCC3 -15.7%, Cc1ccc(CNC(=O)c2cc3cc(C)ccc3n2C)cc1 -26.3%, COc1ccc(-n2c(=O)c3ccc(C(=O)NCc4ccc(C)cc4)cc3n(CC(=O)Nc3cccc(F)c3)c2=O)cc1 -30.5%, CCOc1ccc(C2c3[nH]c4ccccc4c3CCN2C(=O)CSc2ccccc2)cc1 (stereo unspecified) -31.8%, Cc1ccc(NC(=O)CN2C(=O)COc3ccc(S(=O)(=O)N4CCCCC4)cc32)cc1Cl -21.1%, CCOc1cc(CNCCSc2nnnn2C)ccc1OCc1ccc(Cl)cc1Cl -33.9%, CCOC(=O)c1cc(NC(=O)c2ccc(C)cc2)c(=O)n2c1oc1ccccc12 -9.49%, COCCCNC(=O)Cn1c(=O)n(-c2ccccc2)c(=O)c2c1c1cc(OC)ccc1n2C -11.8%, CCCNC(=O)C1CCC(Cn2c(=O)c3sccc3n(CC(=O)N(CC)CC)c2=O)CC1 (stereo unspecified) -0.0426%, COc1ccc(NC(=O)Cn2nnnc2-c2ccccc2F)c(C)c1 -1.58%, COC(=O)c1ccc(NC(=O)CC2C(=O)N(c3cccc(F)c3)C(=O)N2CC(C)C)cc1 (stereo unspecified) -34.9%, Cc1ccc(-n2nc(C(=O)N3CCCCC3)c(=O)n(C)c2=O)cc1 -6.42%, CCCN(CCC)CCNC(=O)CS(=O)Cc1nc(-c2ccc(OC)c(OC)c2)oc1C (stereo unspecified) -10%, NCC(=O)O -4.06% [at 25.1 µM, percent change from vehicle, -100% = no light], CN(C)c1ccc(C(=O)Nc2sc(Nc3ccccc3)nc2C(N)=O)cc1 -41.9%, COc1ccc(Cn2c(CCC(=O)Nc3ccc(Br)c(C)c3)nc3cccnc32)cc1 -23.2%, CCCCCn1c(=O)[nH]c2cc(C(=O)N3CCN(c4ccc(OC)cc4)CC3)ccc2c1=O -36.3%, O=C(Cn1nnc(-c2ccc(C(F)(F)F)cc2)n1)NCCc1ccccc1 -5.11%, Cc1cc(C)cc(NS(=O)(=O)c2cc3[nH]c(=O)c(=O)[nH]c3cc2C)c1 -8%, CCOC(=O)C1CCC(CN(Cc2ccc(OC)cc2)S(=O)(=O)c2ccc(C)cc2)CC1 (stereo unspecified) -38.6%, CCCC(=O)Oc1c(Sc2ccc(C)cc2)c(C)nn1-c1ccccc1 -15.9%, COc1cc(OC)c(C(=O)NCc2nc(-c3ccccc3)no2)cc1OC 6.63% [at 11.5 µM, percent change from vehicle, -100% = no light], O=C(Nc1cc(Cl)cc(Cl)c1)c1ccc(F)c(S(=O)(=O)N2CCCC2)c1 -16.9%, CCc1ccc(CN(Cc2ccco2)c2cnc(S(C)(=O)=O)nc2C(=O)Nc2ccc(C)c(Cl)c2)cc1 -22%, Cc1ccc(NC(=O)CN(C)S(=O)(=O)c2cccc3cccnc23)c(C)c1 -10.5%, COc1ccc(Cn2c(SCc3ccc(C(=O)NC4CCCCC4)cc3)nc3cccnc32)cc1 -34.4%, CC(=O)Nc1ccc2nc(SCCOc3ccc(C)cc3)sc2c1 -6.95%, COc1ccc(NC(=O)c2sc3nc(C)c(C(=O)Nc4ccc(C)cc4C)c(-c4sccc4C)c3c2N)cc1 -15.1%, CC1CCc2c(N3CCC(O)CC3)c(F)cc3c(=O)c(C(=O)O)cn1c23 (stereo unspecified) -5.35%, COc1ccccc1-c1cc(C(F)(F)F)nc(S(=O)(=O)CCCC(=O)Nc2ccccc2F)n1 -94.8%, CCc1c(CN2CCN(c3ccc(F)cc3)CC2)csc1C -19.5%, Cc1ccc(CN2CCC(CNC(=O)Nc3ccccc3F)CC2)cc1 -7.84%, COc1ccc(C)cc1Nc1nc2c(S(=O)(=O)c3cc(C)ccc3C)nnn2c2ccsc12 -8.56%, COCCNc1nc2c(S(=O)(=O)c3ccccc3)nnn2c2ccc(Cl)cc12 -2.79%, COc1cc2c(cc1NC(=O)COc1cc(C)cc(C)c1)oc1ccccc12 9.91%, Cc1cccc(-c2nc3cc(NC(=O)c4ccc(OCC(C)C)cc4)ccc3o2)c1 -4.1%, Cc1ccn2c(c1)nc(=O)c1cc(S(=O)(=O)N3CCCCC3)ccc12 -1.17%, COc1ccc(NC(=O)c2cnc(N3CCOCC3)c3ccccc23)cc1OC -25%, COc1cccc(CCNC(=O)c2ccc(Cn3c(SCc4ccccc4)nc4cccnc43)cc2)c1 -13.2%, CCOc1ccc(NC(=O)NC(C)c2c(-n3cccc3)sc3c2CCN(CC)C3)cc1 (stereo unspecified) 1.4%, Cc1cccn2c(=O)c3cc(C(=O)NC(C)C)n(C)c3nc12 1.46%, O=C(Nc1ccc2nc(SCCOc3ccccc3)sc2c1)c1ccco1 0.597%, COc1ccc(-c2nc3ccccc3n2Cc2ccc(C(C)C)cc2)cc1 -22.7%, Cc1ccccc1NC(=O)C1CCN(C(=O)c2ccc(F)cc2)CC1 -3.81%, CCOc1ccc(NC(=O)Cn2cc(C(=O)c3ccc(F)cc3)c(=O)c3cc4c(cc32)OCO4)cc1 -11.2%, Cc1nn2c(=O)cc(COC(=O)c3ccc(NC(=O)CCc4ccccc4)cc3)nc2s1 11.9%, Cc1cccc(OCCn2c(SCC(N)=O)nc3ccccc32)c1 1.82%, COc1ccc(CCNC(=O)C(=O)NCC(c2ccco2)S(=O)(=O)c2cccs2)cc1 (stereo unspecified) -22.7%, CCC(Sc1nc2cc3c(cc2c(=O)n1CCCCCC(=O)NCc1ccc2c(c1)OCO2)OCO3)C(=O)NCCCOC (stereo unspecified) -3.98%, CC(C)C(=O)Nc1ccccc1C(=O)OCc1cc(=O)n2nc(C3CC3)sc2n1 -24.2%, O=C(Nc1cccc(Br)c1)Nc1nc2c(s1)CCCCCC2 -1.66%, O=C(CN1C(=O)c2cccnc2Oc2ccc(Cl)cc21)NCCCN1CCCCC1 -5.57%, COc1cc2c(C(=O)N3CCN(c4cccc(Cl)c4)CC3)cn(C)c(=O)c2cc1OC -32.2%, CCOc1ccccc1C(=O)N1CCN(CCc2ccccn2)CC1 2.43% [at 11.5 µM, percent change from vehicle, -100% = no light], Cc1ccc(C2=Nc3ccccc3N(CC(=O)Nc3ccccc3C)C(=O)C2)cc1C 25.9%, Cc1ccc(CNC(=O)NC2COc3ccccc3C2)cc1 (stereo unspecified) 0.672%, Cc1c(Cl)cccc1NC(=O)Cn1nc(C(F)(F)F)c2c1CCC2 -17.8%, Cc1cc(C)c(NC(=O)Cn2c(=O)n(CCc3ccccc3)c(=O)c3ccccc32)c(C)c1 -5.07%, Cc1ccc(N2CCn3c2nc2c3c(=O)n(CCCc3ccccc3)c(=O)n2C)cc1 -11.7%, COc1ccc(OC)c(CNC(=O)c2ccccc2NC(=O)c2nsc3ccccc23)c1 1.33%, Clc1ccc(COC(Cn2ccnc2)c2ccc(Cl)cc2Cl)c(Cl)c1 (stereo unspecified) -22.2%, COc1ccc(CCNC(=O)c2c(C)oc3nc(C)nc(N4CCOCC4)c23)cc1OC -2.28%, Cc1cc(C)n(-c2nc3ccccc3nc2Nc2cccc(C(=O)NCCc3ccccc3)c2)n1 -1.33%, Cc1ccc(NC(=O)C2CCCN(S(=O)(=O)c3cccc4cccnc34)C2)c(Br)c1 (stereo unspecified) -17.1%, CC1=C(C(=O)Nc2ccccc2)C(c2cccc(O)c2)n2nc(-c3ccccc3Cl)nc2N1 (stereo unspecified) -24%, Cn1cc(S(=O)(=O)N2CCCCCC2)cc1C(=O)NCc1ccc(Cl)cc1 -38%, Cc1onc(-c2ccccc2Cl)c1C(=O)Oc1ccc(Br)cc1 -14.9%, CCN1CCOC(=O)C1CC(=O)Nc1cccc(OC)c1 (stereo unspecified) -16%, Cc1ccc(-n2nnnc2CNC(=O)c2ccc(F)cc2)cc1C -10.6%, COc1ccccc1-c1nn2c(=O)cc(CN3CCN(S(=O)(=O)c4ccc(C)cc4)CC3)nc2s1 -7.46%, Cc1cc(=O)n(-c2ccccc2)n1C 3.74%, CCOC(=O)c1ccc(NC(=O)C2Cc3ccccc3C(=O)O2)cc1 (stereo unspecified) 18.6%, Cc1cccc(-c2noc(CNC(=O)c3ccco3)n2)c1 2.16%, Brc1ccc(CNCCCSc2nnnn2-c2ccccc2)cc1 -16.6%, CC(=O)Nc1ccc(C)cc1-c1nc2ccccc2n(CC(=O)c2ccc(Cl)cc2)c1=O -11.3%, CC(=O)N(Cc1cccnc1)c1nc2ccc(F)cc2s1 2.37%, COc1cccc2cc(-c3cn4c(n3)sc3cc(F)ccc34)c(=O)oc12 -1.83%, CCOc1ccc(-c2noc(CSc3nnc(-c4ccccc4)n3-c3ccccc3)n2)cc1 -38.3%, O=C(CCn1c(=O)c2cccn2c2cccnc21)NCc1ccccc1Br -6.54%, CN1C(=O)c2ccccc2Sc2ccc(NC(=O)Cc3c(F)cccc3Cl)cc21 -41.5%, CCC(CC)C(=O)Nc1ccc(C(=O)OCc2cc(=O)n3nc(C4CC4)sc3n2)cc1 14.1%, CCC(=O)Nc1ccc(C)cc1-c1nc2ccccc2n(C(C)C(=O)Nc2ccccc2CC)c1=O (stereo unspecified) -20.6%, Cc1ccc(-n2nc(C(=O)N3CCN(c4ccccc4F)CC3)c3c4ccccc4n(C)c3c2=O)cc1 3.32%, COc1cccc(CNC(=O)CN2N=C(c3ccc(C)cc3)CCC2=O)c1 2.86%, Cc1ccc(N(C)S(=O)(=O)c2ccc3c(c2)C(C)(C)C(=O)N3C)cc1C -32.4%, O=C(NCc1ccccc1Cl)c1cccn1-c1nnc(N2CCCCC2)s1 -15%, CCC(C(=O)N1CCN(c2cc(Cl)ccc2C)CC1)n1nc(C)c2sc3ccccc3c2c1=O (stereo unspecified) -7.75%, CCN(CC)CCCNC(=O)CCCn1c(=O)[nH]c2ccc(Br)cc2c1=O -4.4%, CC(=O)c1ccccc1NS(=O)(=O)c1cc2c(cc1C)NC(=O)CO2 -2.69%
